Measured values: PubChem BioAssay AID485313 (National Center for Advancing Translational Sciences (NCATS), 2010)
The whole screen tested about 320,000 compounds, of which about 7,600 (2.4%) were called active. The inconclusive results got no clear call from the source; some entries with a clear call stand among them for comparison. The call rests on the fitted dose curve; in most records, active means well fitted activation curve with a large enough effect; inconclusive means small, poorly fitted or top-dose-only effect; inactive means no such curve, though single readings can be large or run the other way. Where the call is inconclusive, the potency comes from a doubtful curve fit.

Assay: qHTS Assay for NPC1 Promoter Activators; further: nearly all actives have a fitted effect of over 60% in size; on activation: % of control where 0% means no effect
Conditions: Huh7 NPC1 promoter luciferase reporter, 24 h; series mostly up to 9.22 µM; activation: at the top concentration
Summary of the method: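 Luminescence from an NPC1 promoter-driven luciferase reporter in stably transfected Huh7 cells was measured after 24 h compound treatment at 37 °C, followed by 10 min ambient incubation with luciferase detection reagent.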
Potency means the concentration at half of the fitted maximal effect; tags describe the fitted curve by direction and shape.

Potency, active:
N#CC1=C2C=Cc3ccccc3N2CCCC1=O 2.24 µM, COc1ccc(C2Nc3ccccc3C(=O)N2c2ccc(C)cc2)cc1Cn1cc([N+](=O)[O-])cn1 (configuration not stated) 3.98 µM, CCCCCc1nnc(NC(=O)C2=COCCO2)s1 2.82 µM, O=C(Cn1nnc2ccccc21)NCc1ccccc1 2.24 µM, O=c1[nH]cnc2scc(-c3ccc(-c4ccccc4)cc3)c12 1.12 µM, O=C(/C=C/c1ccc2c(c1)OCO2)c1ccccn1 2.24 µM, COc1ccc(-n2ncc3c(Nc4cccc(C)c4)ncnc32)cc1 2.82 µM, Nc1nccc(-c2cc(-c3ccc(Cl)cc3Cl)no2)n1 0.355 µM, O=C(Nc1ccccc1Br)c1ccc2nccnc2c1 3.16 µM, Cc1[nH]c2ccc(C(=O)N3CCCCC3)cc2c1C 3.16 µM, Oc1ccc(F)cc1-c1cc(-c2ccc3c(c2)OCCO3)n[nH]1 3.16 µM, O=C(/C=C/N1CCOCC1)c1ccc(-c2ccccc2)cc1 1.78 µM, CCOC(=O)CNC(=O)CSc1nnc(NC(=O)c2ccc3c(c2)OCO3)s1 3.55 µM, CCc1ccc2oc(-c3cccc(N)c3)nc2c1 0.562 µM, O=C(CSc1nnc(-c2ccccn2)o1)Nc1ccccc1F 0.447 µM, O=C(Nc1ccc(-c2cn3ccccc3n2)cc1)c1cccs1 1.78 µM

Potency, inconclusive:
CCC(=O)c1ccc(OCc2ccc(C(=O)OC)cc2)cc1 0.501 µM [activator, partial curve], CCN=C(N/N=C/c1ccc([N+](=O)[O-])cc1)SC 2.51 µM [activator, partial curve], COc1ccccc1N1CCN(/N=C/c2cccc(OC)c2O)CC1 5.62 µM [activator, single point], O=C(Nc1nnc(-c2cccc(F)c2)s1)Nc1ccccc1F 3.98 µM [activator, partial curve], O=C(Cc1cccs1)N/N=C/C(Cl)=C/c1ccccc1 3.16 µM [activator, single point], CCOc1ccc(C(=O)Nc2ncccc2Cl)cc1 3.55 µM [activator, partial curve], O=C(COc1ccc2ccccc2c1Br)NC(=S)Nc1cccc(CO)c1 2.51 µM [activator, partial curve], O=C(NCc1ccccn1)c1cc2ccccc2oc1=O 3.16 µM [activator, single point], Cc1ccc(NC(=O)c2cc(-c3ccccc3O)n[nH]2)cc1Cl 1.12 µM [activator, full curve, poor fit], O=C(COc1ccc(Br)cc1Cl)NC(=S)Nc1ccccn1 5.62 µM [activator, single point], Cc1ccn2cc(-c3ccc(S(=O)(=O)N4CCOCC4)cc3)nc2c1 2.24 µM [activator, partial curve], O=C(Nc1ccccn1)C1CCN(S(=O)(=O)c2ccccc2)CC1 4.47 µM [activator, single point], O=C1/C(=C/c2ccccn2)SC(=S)N1CCc1ccccc1 3.16 µM [activator, single point], CCCc1cc(C(=O)Nc2ccc(C)cc2)no1 3.98 µM [activator, partial curve], Cc1ccc2nc(-c3cccc(Br)c3)cc(C(=O)Nn3cnnc3)c2c1 5.62 µM [activator, single point], Cc1nnc(SCc2ccc(F)cc2)s1 3.16 µM [activator, single point], Cc1cc(C)c2nc(NC(=O)c3ccc4c(c3)OCO4)sc2c1 0.501 µM [activator, full curve, poor fit], CCOC(=O)CNC(=O)c1ccc2c(c1)OCCO2 2.82 µM [activator, partial curve], O=C(C[n+]1cc(-c2ccc(F)cc2)n2c1CCC2)N1c2ccccc2Sc2ccccc21 2.82 µM [activator, partial curve], CC(=O)Cc1nsc(NC(=O)c2cccc(F)c2)n1 2.82 µM [activator, partial curve], Cn1cccc1/C=N/NC(=O)c1cccs1 6.31 µM [activator, single point], Cn1c(=O)c2cn(-c3ccc4c(c3)OCCO4)cc2n(C)c1=O 3.16 µM [activator, single point], O=C(O)c1c2c(nc3ccccc13)/C(=C/c1ccc(O)cc1)CC2 0.398 µM [activator, partial curve], Cn1c(=N)n(CC(=O)c2ccc(Cl)c(Cl)c2)c2ccccc21 0.631 µM [activator, partial curve], c1ccn2c(SCc3cn4ccsc4n3)nnc2c1 3.98 µM [activator, partial curve], COc1ccc(/C=C2\N=C3CCCN3C2=O)cc1 5.62 µM [activator, single point], CC(C#Cc1ccc2c(c1)COc1c3ccccc3nn1-2)OC(C)(C)C (configuration not stated) 2.24 µM [activator, partial curve], NC(=O)c1ccc(NC(=O)c2cnc3ccccc3n2)cc1 2.51 µM [activator, partial curve], O=C(CSc1nnc(-c2ccccc2)o1)N1CCCC1 3.55 µM [activator, single point], COC(=O)c1ccc(NC(=O)Nc2ccc3c(c2)OCO3)cc1 5.62 µM [activator, single point], O=C(Nc1nc2cc3c(cc2s1)OCCO3)c1ccco1 1.26 µM [activator, single point], NC(=O)c1ccsc1NC(=O)c1ccc2c(c1)CCCC2 3.98 µM [activator, single point], Cc1cc2oc(C(=O)Nc3nonc3C)c(C)c2cc1Cl 3.55 µM [activator, single point], CN(C)c1ccc(-c2nc3ccccn3c2/N=C/c2ccc(Br)cc2)cc1 1 µM [activator, full curve], CCCCS/C(N)=N/N=C/c1ccccc1O 3.55 µM [activator, single point], Cc1cc(C(=O)COc2ncnc3sccc23)c(C)n1C 4.47 µM [activator, partial curve], Cc1ccccc1-c1nc(-c2cccnc2)no1 5.62 µM [activator, single point], Cn1ccsc1=NC(=O)c1ccc(Cl)cc1 3.55 µM [activator, single point], CN1c2ccsc2/C(=N/Nc2ccc(F)cc2)CS1(=O)=O 6.31 µM [activator, single point], CC1CCCN(c2oc(-c3cccc4ccccc34)nc2C#N)C1 (configuration not stated) 5.62 µM [activator, single point], CCCc1cc(C(=O)Nc2cc(Cl)ccc2O)no1 3.16 µM [activator, single point], CC(C)NC(=O)c1cc(-c2ccco2)on1 3.55 µM [activator, single point], O=C(Nc1ccccc1Cl)c1ccc2nc(N3CCOCC3)sc2c1 3.98 µM [activator, partial curve], Cc1ccc(CNC(=O)Cn2ccc3cc(S(=O)(=O)N4CCCCCC4)ccc32)cc1 1.12 µM [activator, single point], CCOC(=O)c1ccc(-n2c(=O)[nH]c3ccccc3c2=O)cc1 3.55 µM [activator, single point], Brc1ccc2oc3c(N4CCOCC4)ncnc3c2c1 3.55 µM [activator, partial curve], COc1cccc2c(=O)c(C(=O)NCc3cccs3)c[nH]c12 2.51 µM [activator, partial curve]

activation, inactive:
Clc1ccc(Cc2ccccn2)cc1 -0.71%, CCOC(=O)N1CCN(C(=O)c2cc(-c3ccc(OCC)cc3)nc3ccccc23)CC1 22.6%, Cc1cc(=O)[nH]c(SCC(=O)Nc2nnc(SCc3ccccc3)s2)n1 -6.08%, COc1ccccc1NC(=S)Nc1ccc2cn[nH]c2c1 2.04%, O=C(NC(Cc1c[nH]c2ccccc12)C(=O)NCCCN1CCOCC1)c1cccs1 (configuration not stated) 0.481%, Cc1cc(C(F)(F)F)n(-c2nc(C(=O)NNS(=O)(=O)c3ccccc3)cs2)n1 -4.88%, Cc1cccnc1NC(=S)Nc1ccc(Cl)c(Cl)c1 10.7%, CCCCN1C(=O)NC(NS(=O)(=O)c2ccc(N)cc2)(C(F)(F)F)C1=O (configuration not stated) -1.05%, O=C(Nn1cnc2ccccc2c1=O)c1cccc(Cl)c1 -4.32%, O/N=C/c1cccc[n+]1CCCCCC[n+]1ccccc1/C=N/O -2.53%, COc1ccc(CC(=O)NCC(C)(C)N2CCOCC2)cc1 -3.32%, COc1ccc(S(=O)(=O)N2CCOC23CCN(S(=O)(=O)c2cc(F)ccc2F)CC3)cc1 -1.91%, O=C(CCS(=O)(=O)c1cc(Br)cc2c1N(C(=O)C1CC1)CC2)N1CCN(c2ccccn2)CC1 0.576%, C=CCN(c1ccc(C(=O)NCCCn2ccnc2)cc1)S(C)(=O)=O -9.8%
